Laboratory results: PubChem BioAssay AID588855 (National Center for Advancing Translational Sciences (NCATS), 2011)
The campaign covered roughly 410,000 compounds. About 5,000 (1.2%) were called active. The shares of active, inactive and inconclusive entries below differ from those in the screen. Calls come from the whole dose curve; as a rule, active = well fitted inhibition curve with a large enough effect; inconclusive = small, poorly fitted or top-dose-only effect; inactive = no such curve, though single readings can be large or run the other way. A potency beside an inconclusive call is a rough fit, not a confirmed value.

Test: qHTS for Inhibitors of TGF-b; note: nearly all actives have a fitted effect of over 65% in size
Conditions: HepG2 CAGA-GFP TGF-b/SMAD3 reporter, GFP fluorescence, 18 h, TGF-beta stimulated, 500 pg/mL final; series mostly up to 46.1 µM
How it was run: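 Using HEPG2 CAGA-GFP reporter cells at 1000 cells/well, we pinned test compounds, stimulated with recombinant TGF-beta (500 pg/mL final) and measured total well GFP after 18 h.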
Potency is the fitted concentration of half-maximal effect; tags give direction and shape of the fitted curve.

Compound	Potency
CC(C)(C)c1ccc(C(=O)C2CCCN(C(=O)c3ccccn3)C2)cc1 (configuration not stated)	inconclusive: 10 µM [inhibitor, partial curve]
O=c1[nH]c(C2CCN(S(=O)(=O)c3ccc4c(c3)OCCO4)CC2)nc2c1nnn2Cc1ccccc1	inconclusive: 8.91 µM [inhibitor, partial curve]
CN(CC(=O)NCCc1ccc(S(N)(=O)=O)cc1)CC(=O)Nc1cccc(F)c1	inactive
CCN1CCN(c2sc(S(C)(=O)=O)nc2S(=O)(=O)c2ccc(Cl)cc2)CC1	inconclusive: 35.5 µM [inhibitor, partial curve, poor fit]
CSc1ccc(CCNC(=O)CCc2c(C)nc3cc(-c4ccccc4)nn3c2C)cc1	inactive
CCCCN1C(=O)C(CC(=O)NC2CC2)CC(C(=O)N(CC)CC)=C1C (configuration not stated)	inactive
O=C(Nc1cccc(S(=O)(=O)N2CCCC2)c1)c1cc(=O)[nH]c2ccccc12	inconclusive: 35.5 µM [inhibitor, single point]
CCn1c(SCC(=O)Nc2cc(C)on2)nnc1-c1ccc(S(=O)(=O)N2CCN(C)CC2)cc1	inconclusive: 28.2 µM [inhibitor, single point]
c1cnc(N2CCN(Cc3c[nH]c4ccccc34)CC2)nc1	inconclusive: 35.5 µM [inhibitor, single point]
CCCCNC(=O)c1onc(CSc2cccc(Cl)c2)c1C(=O)O	inconclusive: 35.5 µM [inhibitor, single point]
CCC(c1nnnn1CCc1ccccc1)N(Cc1ccco1)Cc1cc2c(C)ccc(C)c2[nH]c1=O (configuration not stated)	inconclusive: 35.5 µM [inhibitor, single point]
CCOC(=O)C1=C(CCc2ccccc2)NC(=O)NC1c1ccc2ccccc2c1 (configuration not stated)	inconclusive: 22.4 µM [inhibitor, partial curve, poor fit]
Cc1cccc(N2CCN(S(=O)(=O)c3ccc4c(c3)CC(C)N4C(=O)C3CC3)CC2)c1C (configuration not stated)	inconclusive: 7.08 µM [inhibitor, partial curve, poor fit]
CCN(C(C)=O)c1nc(CSc2nnc(NC(C)C)s2)cs1	inactive
CCOc1cc2c3c(c1)C(C)=CC(C)(C)N3C(=O)C2=O	inconclusive: 8.91 µM [inhibitor, partial curve, poor fit]
CCCCCC(=O)NC(NC(=S)N1CCOCC1)C(Cl)(Cl)Cl (configuration not stated)	inconclusive: 35.5 µM [inhibitor, single point]
CC(=O)c1c(Cl)nc2ccc(Br)cc2c1-c1ccccc1	inconclusive: 35.5 µM [inhibitor, single point]
Cc1ccc2c(c1)c(=O)c(C(=O)c1ccncc1)cn2CC(=O)Nc1ccccc1Cl	inactive
NC(=O)c1noc(C(=O)N(CC(=O)NC2CCCC2)Cc2ccc3c(c2)OCO3)c1N	inconclusive: 3.16 µM [inhibitor, single point]
CCc1ccc(C2=CC(c3cccc(Br)c3)n3nnnc3N2)cc1 (configuration not stated)	inactive
C[C@H]1CCCCO[C@@H](CN(C)S(=O)(=O)c2ccc(F)cc2)[C@@H](C)CN([C@@H](C)CO)C(=O)c2cc(NC(=O)Nc3ccc4c(c3)OCO4)ccc2O1	inactive

Compound	Potency
CCN(Cc1ccc2c(c1)OCCO2)C(=O)CN1C(=O)NC2(CCCCC2)C1=O	inconclusive: 35.5 µM [inhibitor, single point]
O=C(NCc1ccc2c(c1)OCO2)c1c(-c2ccccc2)sc2ccccc12	inconclusive: 22.4 µM [inhibitor, single point]
CCN(CC)S(=O)(=O)c1ccc(C(=O)NCc2cccs2)cc1	inconclusive: 35.5 µM [inhibitor, single point]
Cn1c(=O)n(Cc2ccccc2)c(=O)c2c1nc1n2CCCN1C1CCCCC1	inactive
CC(=O)N1CCN(C(=S)NC(=O)c2ccc(S(=O)(=O)N3CCOCC3)cc2)CC1	inactive
Nc1ccc(Br)c2c1C(=O)c1ccccc1C2=O	inconclusive: 20 µM [inhibitor, single point]
Cc1nn(CC(=O)O)c(=O)c2ccccc12	inconclusive: 3.98 µM [inhibitor, single point]
COc1cc(OC)c2c(-c3cccc(-c4ccoc4)c3)cc(=O)oc2c1	inconclusive: 35.5 µM [inhibitor, single point]
ON=C(c1ccccc1)c1ccc2c3c(cccc13)CC2	inconclusive: 22.4 µM [inhibitor, single point]
CC(NC(=O)CSc1ncccn1)c1ccc(Cl)cc1Cl (configuration not stated)	inactive
Cc1ccc(Cl)cc1-c1cc(C(=O)NCc2cccc(Cl)c2)[nH]n1	inconclusive: 35.5 µM [inhibitor, single point]
COc1c(C(=O)Nc2ccc(Cc3ccncc3)cc2)ccc2ccccc12	inconclusive: 6.31 µM [inhibitor, partial curve, poor fit]
CCCCCCc1cc2cc(-c3nnc(-c4ccc(C)cc4)o3)c(=O)oc2cc1O	inactive
Cc1ccc(S(=O)(=O)N2CCN(C(=O)CCCN3C(=O)NC4(CCCC4)C3=O)CC2)cc1C	inactive
CC(C)CCNC(=O)c1onc(CSc2nc3ccccc3[nH]2)c1C(=O)NCCC(C)C	inconclusive: 0.501 µM [inhibitor, full curve]
O=C(COC(=O)c1c(Cl)cccc1Cl)NC1CCCCCCC1	inconclusive: 15.8 µM [inhibitor, single point]
O=C(Nc1ccc2nc(-c3ccco3)c(-c3ccco3)nc2c1)N1CCCCCC1	inconclusive: 35.5 µM [inhibitor, single point]
CCCCC1CC2=C(C(=O)OC(C)(C)O2)C(c2cccc3ccccc23)O1 (configuration not stated)	inconclusive: 22.4 µM [inhibitor, single point]
CCc1ccc(-n2nc(C)c3c(C)cc(=O)n(CC(=O)NCc4ccc(C)cc4)c32)cc1	inactive
O=C(NCc1ccc(Cl)cc1)c1ccc2c(c1)NC(=O)C(CS(=O)(=O)Cc1ccccc1Cl)N2 (configuration not stated)	inconclusive: 3.55 µM [inhibitor, single point]
CCN(Cc1ccccc1)C(c1ccncc1)c1nnnn1C(C)(C)C (configuration not stated)	inconclusive: 0.282 µM [inhibitor, full curve, poor fit]
